# Results: the supplement of paper PMC8728848
# Some of the results follow.
# How the values were obtained:
# Assay in all cases: glycan array binding signal (z-score within array); higher = stronger binding
# Conditions in all cases: glycan notation: IUPAC condensed, linker removed
# Gal(b1-4)Glc6S = target: Gal(b1-4)Glc6S
# Outline: (§1)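 The binding signal is a Z-score computed within each array and averaged over linkers. Arrays of the same protein sequence at different concentrations or buffers were also averaged together. Data originate from 3228 arrays in the Consortium for Functional Glycomics database, kept only where the protein sequence was available.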
# Gal(b1-4)GlcNAc = target: Gal(b1-4)GlcNAc
# Outline: as §1
# [1] = target: Gal(b1-4)GlcNAc(a1-6)Gal(b1-4)GlcNAc
# Outline: as §1
# Gal(b1-4)GlcNAc(b1-2)Man = target: Gal(b1-4)GlcNAc(b1-2)Man
# Outline: as §1
# [2] = target: Gal(b1-4)GlcNAc(b1-2)Man(a1-3)Man(b1-4)GlcNAc(b1-4)GlcNAc
# Outline: as §1
# [3] = target: Gal(b1-4)GlcNAc(b1-2)Man(a1-3)[Gal(b1-4)GlcNAc(b1-2)Man(a1-6)]Man(b1-4)GlcNAc(b1-4)GlcNAc
# Outline: as §1
# [4] = target: Gal(b1-4)GlcNAc(b1-2)Man(a1-3)[Gal(b1-4)GlcNAc(b1-2)Man(a1-6)]Man(b1-4)GlcNAc(b1-4)[Fuc(a1-6)]GlcNAc
# Outline: as §1
# [5] = target: Gal(b1-4)GlcNAc(b1-2)Man(a1-3)[Gal(b1-4)GlcNAc(b1-2)Man(a1-6)][Gal(b1-4)GlcNAc(b1-4)]Man(b1-4)GlcNAc(b1-4)[Fuc(a1-6)]GlcNAc
# Outline: as §1
# [6] = target: Gal(b1-4)GlcNAc(b1-2)Man(a1-3)[Gal(b1-4)GlcNAc(b1-2)Man(a1-6)][GlcNAc(b1-4)]Man(b1-4)GlcNAc(b1-4)[Fuc(a1-6)]GlcNAc
# Outline: as §1
# [7] = target: Gal(b1-4)GlcNAc(b1-2)Man(a1-3)[GlcNAc(b1-2)Man(a1-6)]Man(b1-4)GlcNAc(b1-4)GlcNAc
# Outline: as §1
# [8] = target: Gal(b1-4)GlcNAc(b1-2)Man(a1-3)[GlcNAc(b1-4)][Gal(b1-4)GlcNAc(b1-2)Man(a1-6)]Man(b1-4)GlcNAc(b1-4)GlcNAc
# Outline: as §1
# [9] = target: Gal(b1-4)GlcNAc(b1-2)Man(a1-3)[Man(a1-6)]Man(b1-4)GlcNAc(b1-4)GlcNAc
# Outline: as §1
# [10] = target: Gal(b1-4)GlcNAc(b1-2)Man(a1-6)Man(b1-4)GlcNAc(b1-4)GlcNAc
# Outline: as §1
# [11] = target: Gal(b1-4)GlcNAc(b1-2)Man(a1-6)[GlcNAc(b1-2)Man(a1-3)]Man(b1-4)GlcNAc(b1-4)GlcNAc
# Outline: as §1
# [12] = target: Gal(b1-4)GlcNAc(b1-2)Man(a1-6)[Man(a1-3)]Man(b1-4)GlcNAc(b1-4)GlcNAc
# Outline: as §1
# [13] = target: Gal(b1-4)GlcNAc(b1-2)[Gal(b1-4)GlcNAc(b1-4)]Man(a1-3)[Gal(b1-4)GlcNAc(b1-2)Man(a1-6)]Man(b1-4)GlcNAc(b1-4)GlcNAc
# Outline: as §1
# [14] = target: Gal(b1-4)GlcNAc(b1-2)[Gal(b1-4)GlcNAc(b1-4)]Man(a1-3)[Gal(b1-4)GlcNAc(b1-2)[Gal(b1-4)GlcNAc(b1-6)]Man(a1-6)]Man(b1-4)GlcNAc(b1-4)GlcNAc
# Outline: as §1
# [15] = target: Gal(b1-4)GlcNAc(b1-2)[Gal(b1-4)GlcNAc(b1-4)]Man(a1-3)[GlcNAc(b1-4)][Gal(b1-4)GlcNAc(b1-2)Man(a1-6)]Man(b1-4)GlcNAc(b1-4)GlcNAc
# Outline: as §1
# [16] = target: Gal(b1-4)GlcNAc(b1-2)[Gal(b1-4)GlcNAc(b1-4)]Man(a1-3)[GlcNAc(b1-4)][Gal(b1-4)GlcNAc(b1-2)[Gal(b1-4)GlcNAc(b1-6)]Man(a1-6)]Man(b1-4)GlcNAc(b1-4)GlcNAc
# Outline: as §1
# [17] = target: Gal(b1-4)GlcNAc(b1-2)[Gal(b1-4)GlcNAc(b1-6)]Man(a1-6)[Gal(b1-4)GlcNAc(b1-2)Man(a1-3)]Man(b1-4)GlcNAc(b1-4)GlcNAc
# Outline: as §1
# [18] = target: Gal(b1-4)GlcNAc(b1-2)[Gal(b1-4)GlcNAc(b1-6)]Man(a1-6)[Gal(b1-4)GlcNAc(b1-2)Man(a1-3)]Man(b1-4)GlcNAc(b1-4)[Fuc(a1-6)]GlcNAc
# Outline: as §1
# [19] = target: Gal(b1-4)GlcNAc(b1-2)[Gal(b1-4)GlcNAc(b1-6)]Man(a1-6)[GlcNAc(b1-4)][Gal(b1-4)GlcNAc(b1-2)Man(a1-3)]Man(b1-4)GlcNAc(b1-4)GlcNAc
# Outline: as §1
# [20] = target: Gal(b1-4)GlcNAc(b1-2)[Gal(b1-4)GlcNAc(b1-6)]Man(a1-6)[GlcNAc(b1-4)][Gal(b1-4)GlcNAc(b1-2)[Gal(b1-4)GlcNAc(b1-4)]Man(a1-3)]Man(b1-4)GlcNAc(b1-4)[Fuc(a1-6)]GlcNAc
# Outline: as §1
# [21] = target: Gal(b1-4)GlcNAc(b1-3)Gal(b1-3)GalNAc
# Outline: as §1
# [22] = target: Gal(b1-4)GlcNAc(b1-3)Gal(b1-3)GlcNAc
# Outline: as §1
# [23] = target: Gal(b1-4)GlcNAc(b1-3)Gal(b1-4)Glc
# Outline: as §1
# [24] = target: Gal(b1-4)GlcNAc(b1-3)Gal(b1-4)GlcNAc
# Outline: as §1
# [25] = target: Gal(b1-4)GlcNAc(b1-3)Gal(b1-4)GlcNAc(b1-2)Man(a1-3)[Gal(b1-4)GlcNAc(b1-3)Gal(b1-4)GlcNAc(b1-2)Man(a1-6)]Man(b1-4)GlcNAc(b1-4)GlcNAc
# Outline: as §1
# [26] = target: Gal(b1-4)GlcNAc(b1-3)Gal(b1-4)GlcNAc(b1-2)Man(a1-3)[Gal(b1-4)GlcNAc(b1-3)Gal(b1-4)GlcNAc(b1-2)Man(a1-6)]Man(b1-4)GlcNAc(b1-4)[Fuc(a1-6)]GlcNAc
# Outline: as §1
# [27] = target: Gal(b1-4)GlcNAc(b1-3)Gal(b1-4)GlcNAc(b1-2)[Gal(b1-4)GlcNAc(b1-3)Gal(b1-4)GlcNAc(b1-6)]Man(a1-6)[Gal(b1-4)GlcNAc(b1-3)Gal(b1-4)GlcNAc(b1-2)Man(a1-3)]Man(b1-4)GlcNAc(b1-4)GlcNAc
# Outline: as §1
# [28] = target: Gal(b1-4)GlcNAc(b1-3)Gal(b1-4)GlcNAc(b1-2)[Gal(b1-4)GlcNAc(b1-3)Gal(b1-4)GlcNAc(b1-6)]Man(a1-6)[Gal(b1-4)GlcNAc(b1-3)Gal(b1-4)GlcNAc(b1-2)Man(a1-3)]Man(b1-4)GlcNAc(b1-4)[Fuc(a1-6)]GlcNAc
# Outline: as §1
# [29] = target: Gal(b1-4)GlcNAc(b1-3)Gal(b1-4)GlcNAc(b1-3)Gal(b1-4)GlcNAc
# Outline: as §1
# [30] = target: Gal(b1-4)GlcNAc(b1-3)Gal(b1-4)GlcNAc(b1-3)Gal(b1-4)GlcNAc(b1-2)Man(a1-3)[Gal(b1-4)GlcNAc(b1-3)Gal(b1-4)GlcNAc(b1-3)Gal(b1-4)GlcNAc(b1-2)Man(a1-6)]Man(b1-4)GlcNAc(b1-4)GlcNAc
# Outline: as §1
# [31] = target: Gal(b1-4)GlcNAc(b1-3)Gal(b1-4)GlcNAc(b1-3)Gal(b1-4)GlcNAc(b1-2)Man(a1-3)[Gal(b1-4)GlcNAc(b1-3)Gal(b1-4)GlcNAc(b1-3)Gal(b1-4)GlcNAc(b1-2)Man(a1-6)]Man(b1-4)GlcNAc(b1-4)[Fuc(a1-6)]GlcNAc
# Outline: as §1
# [32] = target: Gal(b1-4)GlcNAc(b1-3)Gal(b1-4)GlcNAc(b1-3)Gal(b1-4)GlcNAc(b1-2)[Gal(b1-4)GlcNAc(b1-3)Gal(b1-4)GlcNAc(b1-3)Gal(b1-4)GlcNAc(b1-6)]Man(a1-6)[Gal(b1-4)GlcNAc(b1-3)Gal(b1-4)GlcNAc(b1-3)Gal(b1-4)GlcNAc(b1-2)Man(a1-3)]Man(b1-4)GlcNAc(b1-4)[Fuc(a1-6)]GlcNAc
# Outline: as §1
# [33] = target: Gal(b1-4)GlcNAc(b1-3)Gal(b1-4)GlcNAc(b1-3)Gal(b1-4)GlcNAc(b1-3)Gal(b1-4)GlcNAc(b1-2)Man(a1-3)[Gal(b1-4)GlcNAc(b1-3)Gal(b1-4)GlcNAc(b1-3)Gal(b1-4)GlcNAc(b1-3)Gal(b1-4)GlcNAc(b1-2)Man(a1-6)]Man(b1-4)GlcNAc(b1-4)GlcNAc
# Outline: as §1
# [34] = target: Gal(b1-4)GlcNAc(b1-3)Gal(b1-4)GlcNAc(b1-3)Gal(b1-4)GlcNAc(b1-3)Gal(b1-4)GlcNAc(b1-2)Man(a1-3)[Gal(b1-4)GlcNAc(b1-3)Gal(b1-4)GlcNAc(b1-3)Gal(b1-4)GlcNAc(b1-3)Gal(b1-4)GlcNAc(b1-2)Man(a1-6)]Man(b1-4)GlcNAc(b1-4)[Fuc(a1-6)]GlcNAc
# Outline: as §1
# [35] = target: Gal(b1-4)GlcNAc(b1-3)Gal(b1-4)GlcNAc(b1-3)Gal(b1-4)GlcNAc(b1-3)Gal(b1-4)GlcNAc(b1-2)[Gal(b1-4)GlcNAc(b1-3)Gal(b1-4)GlcNAc(b1-3)Gal(b1-4)GlcNAc(b1-3)Gal(b1-4)GlcNAc(b1-6)]Man(a1-6)[Gal(b1-4)GlcNAc(b1-3)Gal(b1-4)GlcNAc(b1-3)Gal(b1-4)GlcNAc(b1-3)Gal(b1-4)GlcNAc(b1-2)Man(a1-3)]Man(b1-4)GlcNAc(b1-4)[Fuc(a1-6)]GlcNAc
# Outline: as §1
binder,measurement,setting,value
"MAA (Maackia amurensis), P0DKL3 (protein) MATSNSKPTQVLLATFLTFFFLLLNNVNSSDELSFTINNFVPNEADLLFQGEASVSSTGVLQLTRVENGQPQKYSVGRALYAAPVRIWDNTTGSVASFSTSFTFVVKAPNPDITSDGLAFYLAPPDSQIPSGSVSKYLGLFNNSNSDSSNQIVAVELDTYFAHSYDPWDPNYRHIGIDVNGIESIKTVQWDWINGGVAFATITYLAPNKTLIASLVYPSNQTTFSVAASVDLKEILPEWVRVGFSAATGYPTEVETHDVLSWSFTSTLEANCDAATENNVHIARYTA",glycan array binding signal (z-score),Gal(b1-4)Glc6S,0.402
same,glycan array binding signal (z-score),Gal(b1-4)GlcNAc,-0.22
same,glycan array binding signal (z-score),[1],-0.212
same,glycan array binding signal (z-score),Gal(b1-4)GlcNAc(b1-2)Man,-0.24
same,glycan array binding signal (z-score),[2],-0.232
same,glycan array binding signal (z-score),[3],-0.204
same,glycan array binding signal (z-score),[4],-0.248
same,glycan array binding signal (z-score),[5],-0.243
same,glycan array binding signal (z-score),[6],-0.262
same,glycan array binding signal (z-score),[7],-0.23
same,glycan array binding signal (z-score),[8],-0.175
same,glycan array binding signal (z-score),[9],-0.206
same,glycan array binding signal (z-score),[10],-0.229
same,glycan array binding signal (z-score),[11],-0.226
same,glycan array binding signal (z-score),[12],-0.138
same,glycan array binding signal (z-score),[13],-0.036
same,glycan array binding signal (z-score),[14],-0.205
same,glycan array binding signal (z-score),[15],-0.28
same,glycan array binding signal (z-score),[16],-0.198
same,glycan array binding signal (z-score),[17],-0.196
same,glycan array binding signal (z-score),[18],-0.234
same,glycan array binding signal (z-score),[19],-0.256
same,glycan array binding signal (z-score),[20],-0.264
same,glycan array binding signal (z-score),[21],-0.13
same,glycan array binding signal (z-score),[22],-0.168
same,glycan array binding signal (z-score),[23],-0.155
same,glycan array binding signal (z-score),[24],-0.214
same,glycan array binding signal (z-score),[25],0.162
same,glycan array binding signal (z-score),[26],0.122
same,glycan array binding signal (z-score),[27],-0.248
same,glycan array binding signal (z-score),[28],0.622
same,glycan array binding signal (z-score),[29],-0.194
same,glycan array binding signal (z-score),[30],0.77
same,glycan array binding signal (z-score),[31],0.347
same,glycan array binding signal (z-score),[32],0.984
same,glycan array binding signal (z-score),[33],0.231
same,glycan array binding signal (z-score),[34],0.289
same,glycan array binding signal (z-score),[35],0.749
